Where “and” joins values, the source holds several entries; their conditions need not be identical. Equal entries are not always repeated. Screen size: about 410,000 compounds; about 6,400 (1.6%) were called active. This list was built around the results that the source calls inconclusive (neither active nor inactive); the mix of calls is not that of the screen. Calls come from the whole dose curve; as a rule, active = well fitted inhibition curve with a large enough effect; inconclusive = small, poorly fitted or top-dose-only effect; inactive = no such curve, though single readings can be large or run the other way. Where the call is inconclusive, the potency comes from a doubtful curve fit.
Each molecule was assayed against Glucagon-like peptide 1 receptor (Homo sapiens) (UniProt P43220) (assay: qHTS of GLP-1 Receptor Inverse Agonists (Inhibition Mode)). Details: HEK293 GLP-1R CRE-luciferase, luminescence, 24 h, GLP-1R form is constitutively active; activity change, negative = inhibition: at 38.3 µM (top of the series) unless noted.
Procedure, shortened: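 HEK293 cells stably co-expressing constitutively active GLP-1R and a cAMP-responsive luciferase reporter were seeded in DMEM with 10% Nu serum, given compounds after 12 h, and incubated 24 h at 37 deg C. Luminescence was then read.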
% is set by controls: 0 for no effect and ±100 for the full control effect; potency is the fitted concentration of half-maximal effect; tags give direction and shape of the fitted curve.
Note: nearly all actives have a fitted effect of over 55% in size.

Chain of UniProt P43220 (P43220 whole entry, looked up): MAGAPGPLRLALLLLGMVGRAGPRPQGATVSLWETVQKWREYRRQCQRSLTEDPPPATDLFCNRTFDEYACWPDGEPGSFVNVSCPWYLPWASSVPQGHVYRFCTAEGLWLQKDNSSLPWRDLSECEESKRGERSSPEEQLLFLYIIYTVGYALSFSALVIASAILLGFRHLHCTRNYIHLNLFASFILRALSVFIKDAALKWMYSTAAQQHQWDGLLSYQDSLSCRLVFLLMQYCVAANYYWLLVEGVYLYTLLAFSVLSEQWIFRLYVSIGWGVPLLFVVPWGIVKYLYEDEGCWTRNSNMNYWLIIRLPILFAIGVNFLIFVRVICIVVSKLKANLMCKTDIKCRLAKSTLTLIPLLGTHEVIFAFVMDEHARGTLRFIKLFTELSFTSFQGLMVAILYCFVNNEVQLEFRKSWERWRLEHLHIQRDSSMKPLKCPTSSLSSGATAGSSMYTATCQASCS

Activity change, negative = inhibition, inactive:
CCOC(=O)Cc1ccc(NC(=O)NCc2c(-n3cccc3)sc3c2CCCC3)cc1 -23%, CCn1cc(C(=O)OCC(=O)Nc2ccc(C)c(Cl)c2)c(=O)c2ccc(C)nc21 -3.11%, O=C(CCNC(=O)Cn1cnc2ccccc2c1=O)NCC1COc2ccccc2O1 (stereo not given) -9.31%, CCOc1ccc(-c2cc3c(=O)n(CC(=O)NCc4ccc(C)cc4)ccn3n2)cc1 9.06%, Cc1noc(C)c1S(=O)(=O)N(C)C[C@H]1OCc2cnnn2CCCC(=O)N([C@H](C)CO)C[C@H]1C 6.82%, CC(=O)NCCN=C(C)c1sc2ccccc2c1O 0.108%, COc1ccc(C2=Nc3ccccc3N(C(=O)c3cccnc3)C2C(=O)NC(C)(C)C)cc1 (stereo not given) 16.6%, Cc1ccc(C)c2c1c1ccccc1n2C 5.09%, O=C(NC1CCCCC1)C(c1ccnc2ccccc12)n1c(=O)c(-c2ccco2)nc2ccccc21 (stereo not given) 4.84%, COc1ccc(C(=O)N/N=C/c2ccc(OC(=O)c3ccccc3)cc2)cc1 9.1%

Activity change, negative = inhibition, inconclusive:
COc1ccc(/C=N/Nc2ccccc2C(=O)O)cc1 -54.1% [inhibitor]

Potency, inconclusive:
COc1cccc(NC(=S)N/N=C2\CC3CCC2(C)C3(C)C)c1 (stereo not given) 1.78 µM [inhibitor, full curve, poor fit], CCN1CCSc2ccc(C(=O)NCc3ccc(OC(C)C)cc3)cc21 12.6 µM [inhibitor, single point] and 8.91 µM [inhibitor, partial curve, poor fit], Cc1ccc(Nc2nc3ccccc3s2)c(C)c1 28.2 µM [inhibitor, single point], O=[N+]([O-])c1ccc(NCCOc2ccccc2Cl)nc1 11.2 µM [inhibitor, single point], CN(CC(O)COc1ccc(OCC(O)CN(C)C2CCCCC2)cc1)C1CCCCC1 (stereo not given) 3.55 µM [inhibitor, partial curve, poor fit], Cc1ccc(NC(=O)CCNC(=O)c2ccccc2Cl)cc1S(=O)(=O)N1CCCCCC1 20 µM [inhibitor, single point], C=CCc1cccc(CNc2ccc(Br)cc2)c1O 12.6 µM [inhibitor, partial curve, poor fit], CCc1cccc(NC(=O)C2CCCN(c3ncnc4onc(-c5ccc(F)cc5)c34)C2)c1 (stereo not given) 28.2 µM [inhibitor, single point], O=[N+]([O-])c1cccc(-c2cc3ccccc3[nH]2)c1 14.1 µM [inhibitor, single point], CCOC(=O)c1cc([N+](=O)[O-])cc([N+](=O)[O-])c1Sc1ncnc2nc[nH]c12 28.2 µM [inhibitor, single point], Cc1cc(Cl)ccc1NC(=S)N1CCN(Cc2ccccc2)CC1 14.1 µM [inhibitor, single point], CC(C)c1cccc(C(C)C)c1OCCCCCN1CCOCC1 7.08 µM [inhibitor, partial curve, poor fit], CCCCOC(=O)c1ccc(NC(=O)CN2C(=O)NC3(CCCCCC3)C2=O)cc1 8.91 µM [inhibitor, partial curve], C#Cc1ccc([C@@H]2C=C(C(=O)N3CCN(Cc4ccccc4)CC3)O[C@H](OCC)[C@H]2CCCO)cc1 11.2 µM [inhibitor, single point], COc1ccc(-c2sc3cc4c(cc3c2-c2ccc(OCCN3CCCCC3)cc2)OCO4)cc1 20 µM [inhibitor, partial curve, poor fit], CCN(CC)S(=O)(=O)c1ccc(NC(=O)[C@@H](NC(=O)c2cc(OC)cc(OC)c2)C(C)C)cc1 22.4 µM [inhibitor, single point], CCOc1cc(C(N)=O)cc(Cl)c1OCc1ccccc1 15.8 µM [inhibitor, single point], COc1cc(C)ccc1OCCOc1cc(C)ccc1Cl 14.1 µM [inhibitor, single point], Cc1cc2nc(-c3cccc(Cl)c3)c(CC(C)(C)C)n2c(C)c1Br 10 µM [inhibitor, partial curve, poor fit], c1ccc2c(c1)oc1c(Nc3ccc(CN4CCOCC4)cc3)ncnc12 28.2 µM [inhibitor, single point], COCCN(Cc1ccccc1)C(=S)Nc1ccc(OC(F)F)cc1 11.2 µM [inhibitor, single point], CCOC(=O)C1(Cc2cccc(Cl)c2)CCCN(C(=O)c2cccc(C)n2)C1 (stereo not given) 15.8 µM [inhibitor, single point], Cc1ccc2nc(N(CCCN(C)C)C(=O)c3ccc(S(=O)(=O)N4CCCCCC4)cc3)sc2c1 3.55 µM [inhibitor, partial curve, poor fit], CN1CCN(c2ccc(S(=O)(=O)N3CCCCC3)cc2NC(=O)Cc2ccc(Cl)cc2)CC1 2.24 µM [inhibitor, full curve, poor fit], COC(=O)C1(C(=O)OC)c2ccccc2N(S(=O)(=O)c2ccc(C)cc2)C1CC(=O)c1ccccc1 (stereo not given) 28.2 µM [inhibitor, single point], O=S(=O)([N-]c1nc2ccccc2nc1-[n+]1ccc(Cc2ccccc2)cc1)c1ccc(Br)s1 28.2 µM [inhibitor, single point], COC(=O)C1=C(N)c2ccccc2C1(C#N)c1ccccc1 (stereo not given) 11.2 µM [inhibitor, partial curve, poor fit], CC1(C)Cc2[nH]c3ccccc3c2C(C)(C)N1 10 µM [inhibitor, partial curve, poor fit], CCOc1ccccc1NC(=O)C(OC(=O)c1ccccc1)c1ccccc1 (stereo not given) 10 µM [inhibitor, partial curve]
